{"source": "ChEMBL document CHEMBL4888484", "about": "“Replenishing the malaria drug discovery pipeline: Screening and hit evaluation of the MMV Hit Generation Library 1 (HGL1) against asexual blood stage Plasmodium falciparum ,using a nano luciferase reporter read-out” (2022)", "note": "The whole screen tested about 150,000 compounds, of which about 540 (0.36%) showed an effect of 50% or more. This is one part of the list. Where a SMILES comes first, the peptide text is derived from it. The star is where a group is joined. Cbz = O=C(OCc1ccccc1)*", "data": [{"tested_on": "Plasmodium falciparum", "experiment": "Primary screen in NF54 nanoGlo assay, in single point, at 2uM, 72h; a lower Z score goes with more inhibition", "format": "functional, Erythrocyte", "settings": "timepoint 72 hour", "units": {"% Inhibition": "%"}, "values": [{"smiles": "CCO[C@@]1(C)C[C@H]1NC(=O)NCc1cccc(Cl)c1O", "% Inhibition": -4, "Z score": 0.58}, {"smiles": "Cc1cc(O)c2cc(C(=O)Nc3ccc(C(N)=O)cc3)ccc2n1", "% Inhibition": -5, "Z score": 0.7}, {"smiles": "CCOC(=O)[C@H]1CCCN(C(=O)CN(C)C(=O)c2cc3n(n2)CCCN(Cc2ccc(C)cc2)C3=O)C1", "% Inhibition": -7, "Z score": 0.83}, {"smiles": "CC(=O)Nc1nc(C(=O)N2C[C@@H](C)CC(C)(C)C2)cs1", "% Inhibition": -4, "Z score": 0.7}, {"smiles": "CCN(CC)C(=O)c1cn2c3c(cccc3c1=O)C[C@@H]2C", "% Inhibition": 15, "Z score": -1.9}, {"smiles": "Cc1nc2c(s1)CCC[C@@H]2NC(=O)CCc1cccnc1", "% Inhibition": -1, "Z score": 0.08}, {"smiles": "CC[C@H](C)NC(=O)CCc1c(-c2ccc(Cl)cc2)nc2ccc(-c3cccc(C(F)(F)F)c3)cn12", "% Inhibition": -11, "Z score": 1.28}, {"smiles": "O=c1[nH]ccc2ccc(-n3ncc4cccnc43)cc12", "% Inhibition": -12, "Z score": 1.7}, {"smiles": "Cc1cnn(Cc2cccc(F)c2)c1NC(=O)c1cccc2c1OCC2", "% Inhibition": 7, "Z score": -0.94}, {"smiles": "Cc1nonc1CN1CCC[C@H](C(=O)Nc2ccccn2)C1", "% Inhibition": -3, "Z score": 0.6}, {"smiles": "Cc1cc(CS(=O)(=O)Cc2noc(C(C)(C)C)n2)on1", "% Inhibition": -6, "Z score": 0.51}, {"smiles": "CC(C)c1ccc(C#N)c(N(C)CCn2ccnc2)n1", "% Inhibition": -13, "Z score": 1.33}, {"smiles": "CC(C)(C)c1ncc(CN2CC(O)(c3ccccc3)C2)s1", "% Inhibition": -11, "Z score": 1.79}, {"smiles": "Cc1nc(CN2CC[C@H](NC(=O)C3CCOCC3)[C@@H](O)C2)cs1", "% Inhibition": -12, "Z score": 2.19}, {"smiles": "CC1CC(C)CN(Cc2ccc(CNC(=O)C3CCCN(C(=O)C(C)C)C3)cc2)C1", "note": "(stereo not drawn)", "% Inhibition": 2, "Z score": -0.32}, {"smiles": "Cc1nsc(C(=O)N2CCC(c3nc4c(s3)CCC4)CC2)n1", "% Inhibition": -14, "Z score": 1.69}, {"smiles": "Cc1nsc2ncn(Cc3cc(-c4ccccc4)on3)c(=O)c12", "% Inhibition": -16, "Z score": 2.03}, {"smiles": "Cc1ccc(-n2nc3c(=O)n([C@@H](C)C(=O)NCc4ccc(Cl)cc4)nc(C)c3c2C)cc1", "% Inhibition": 10, "Z score": -1.13}, {"smiles": "Cc1ccc(-n2cc3c(N4CCC(C(=O)N5CCN(c6ccccc6F)CC5)CC4)ncnc3n2)cc1", "% Inhibition": -25, "Z score": 2.25}, {"smiles": "CCOc1nnc(CNC2(C(N)=O)CCCCC2)s1", "% Inhibition": -5, "Z score": 0.67}, {"smiles": "CCN1CCN(C2CN(C(=O)c3cc(C)cc(C)c3)C2)CC1", "% Inhibition": 7, "Z score": -0.84}, {"smiles": "CCOc1ccc(C(=O)NCCn2nc(C3CC3)ccc2=O)nn1", "% Inhibition": 3, "Z score": -0.37}, {"smiles": "C[C@@H](CC#N)NC(=O)c1sccc1OC(F)F", "% Inhibition": -9, "Z score": 0.95}, {"smiles": "C[C@@H](C1CCN(c2ccc3cc(Cl)ccc3n2)CC1)N1CCCC1", "% Inhibition": -13, "Z score": 1.78}, {"smiles": "CCN(C)C(=O)Nc1cc(F)ccc1Br", "% Inhibition": -2, "Z score": 0.21}, {"smiles": "c1cn(C2CCN(CCc3ccc4c(c3)CCO4)CC2)cn1", "% Inhibition": -3, "Z score": 0.37}, {"smiles": "CCCc1cc(C(=O)N[C@H](c2ccccn2)C(F)(F)F)[nH]n1", "% Inhibition": -20, "Z score": 2.04}, {"smiles": "CN1CCc2c([nH]c3ccccc23)C12CCN(C(=O)Cc1cccnc1)CC2", "% Inhibition": 3, "Z score": -0.57}, {"smiles": "COc1ccc(CNC(=O)Cn2cnc3c(C(N)=O)nsc3c2=O)cc1", "% Inhibition": -4, "Z score": 0.48}, {"smiles": "C=C(C)Cn1c(C(C)c2cnn(C)c2)nnc1N1C[C@@H](C)O[C@@H](C)C1", "note": "(stereo partly drawn)", "% Inhibition": -14, "Z score": 1.44}, {"smiles": "CCCc1cc(C(=O)N2CCC[C@H](C(=O)c3cccc4ccccc34)C2)n(C)n1", "% Inhibition": -7, "Z score": 0.97}, {"smiles": "Cc1cc(C)nc(NC2=NC(=O)CN2c2cc(Cl)cc(Cl)c2)n1", "% Inhibition": 7, "Z score": -0.96}, {"smiles": "CCOc1ncccc1-c1cnn(CC)c1C", "% Inhibition": -14, "Z score": 2.06}, {"smiles": "CC(CNC(=O)NC1CCN(c2cnn(C)c2)C1)Cc1cccs1", "note": "(stereo not drawn)", "% Inhibition": -4, "Z score": 0.44}, {"smiles": "COc1ccccc1-c1ncc(CN2CCC[C@H]2c2ccc(C(N)=O)s2)cn1", "% Inhibition": -12, "Z score": 1.81}, {"smiles": "Cc1ccc(-n2ccnc2)c(C(=O)N2CCC3(CC2)NC(=O)CO3)c1", "% Inhibition": 6, "Z score": -1.03}, {"smiles": "COC(C)(C)CCN1CCOc2ccccc2[C@@H]1C(=O)O", "% Inhibition": -8, "Z score": 1.67}, {"smiles": "C#CCN[C@@H](CCCO)c1ccccc1", "% Inhibition": 1, "Z score": -0.13}, {"smiles": "Cn1nc(C(=O)N(CCCn2ccnc2)Cc2cccnc2)c2c1CCCC2", "% Inhibition": -2, "Z score": 0.35}, {"smiles": "CN(Cc1ccccc1)C(=O)c1cc(-c2ccco2)n[nH]1", "% Inhibition": -8, "Z score": 1.22}, {"smiles": "Cc1ccc(S(=O)(=O)CCc2nc(-c3cccnc3)n[nH]2)cc1", "% Inhibition": -4, "Z score": 0.8}, {"smiles": "Cc1nc(C(=O)N(C[C@H]2CCCO2)c2ccncc2)nn1-c1ccccc1Cl", "% Inhibition": -4, "Z score": 0.44}, {"smiles": "Cc1nn(C)c(C)c1S(=O)(=O)N1CC[C@H](CCOc2ccccc2)C1", "% Inhibition": -2, "Z score": 0.34}, {"smiles": "O=C(NCC[C@H]1CCOC1)c1ccc(-c2ccc3cc[nH]c3c2)cc1", "% Inhibition": -13, "Z score": 1.2}, {"smiles": "COc1ccc(NC(=O)C2CC(c3cccc(C)c3)CN(Cc3cccc(F)c3)C2)cc1OC", "note": "(stereo not drawn)", "% Inhibition": -4, "Z score": 0.79}, {"smiles": "CN1CCN(C[C@H]2CCCN(Cc3cc(C(C)(C)C)[nH]n3)C2)CC1", "% Inhibition": -7, "Z score": 1.34}, {"smiles": "Cc1ccnc(N(C(=O)c2ccc(C)c(Cl)c2)C(=O)c2ccc(C)c(Cl)c2)c1", "% Inhibition": -1, "Z score": 0.1}, {"smiles": "C[C@@]12CN(c3ncnc(N)c3Cl)CC1[C@H]1CC[C@@H]2C1", "note": "(stereo partly drawn)", "% Inhibition": -3, "Z score": 0.36}, {"smiles": "Cc1cc(C)cc(CN2CCN(C(=O)c3ccc(F)cc3C)CC2=O)c1", "% Inhibition": -12, "Z score": 2.56}, {"smiles": "Cc1nc(C)c(C(=O)Nc2cccc(C(=O)N3CCc4sccc4C3)c2C)s1", "% Inhibition": -5, "Z score": 0.48}, {"smiles": "CCn1nc(C)c(-c2cc(-c3c(C)nn(C)c3C)c(C#N)c(N)n2)c1C", "% Inhibition": -4, "Z score": 0.68}, {"smiles": "Cc1ccc(C2c3ccsc3CCN2CCC(=O)N2CCN(C(=O)Cc3cccs3)C(C)C2)cc1", "note": "(stereo not drawn)", "% Inhibition": 29, "Z score": -2.41}, {"smiles": "CC(C)CCN1C[C@@H]2Oc3ccccc3C(=O)N(C)[C@@H]2C1", "% Inhibition": -1, "Z score": 0.21}, {"smiles": "CC1(C)[C@H](Cc2cc(CCO)on2)C[C@@H]1NS(=O)(=O)c1ccc(F)cc1", "% Inhibition": 3, "Z score": -0.51}, {"smiles": "Cc1csc([C@H](C)NC(=O)CN(C)CCO)n1", "% Inhibition": -10, "Z score": 1.98}, {"smiles": "O=C(NCCOC1CCCCCC1)c1cn[nH]c1", "% Inhibition": 4, "Z score": -0.8}, {"smiles": "CC(=O)N1CCC(NC(=O)N2CCCC2CC2CC3CCC2C3)CC1", "note": "(stereo not drawn)", "% Inhibition": 7, "Z score": -0.93}, {"smiles": "CCc1nc(-c2cccs2)n(C[C@@H](O)CC)n1", "% Inhibition": -1, "Z score": 0.09}, {"smiles": "CC(C)CC(=O)N[C@@H](Cc1ccccc1)c1nnc(N2CCN(C)CC2)o1", "% Inhibition": -1, "Z score": 0.06}, {"smiles": "NS(=O)(=O)c1cnc(N2CCCCCC2)s1", "% Inhibition": 28, "Z score": -3.73}, {"smiles": "c1nc(CN2CCC(NCc3cnc(C4CCC4)s3)CC2)cs1", "% Inhibition": -8, "Z score": 1.05}, {"smiles": "COC[C@H]1CN(C(=O)c2cccc(C)n2)CCC1(F)F", "% Inhibition": -9, "Z score": 1.74}, {"smiles": "CC(=O)N1CC[C@@]2(CO)CN(S(=O)(=O)c3ccc(F)cc3)C[C@H]2C1", "% Inhibition": 8, "Z score": -0.94}, {"smiles": "CCCCCOc1ccc([C@]2(C)C(=O)N(CN3CCOCC3)C(=O)N2CN2CCOCC2)cc1", "% Inhibition": 4, "Z score": -0.46}, {"smiles": "CN(CCNc1cc([C@H]2CCOC2)ncn1)C(=O)CN1CCCCC1=O", "% Inhibition": -17, "Z score": 2.27}, {"smiles": "C[C@@]1(C2CC2)CN(Cc2ccc3cc[nH]c3c2)CCO1", "% Inhibition": 2, "Z score": -0.4}, {"smiles": "C=CCc1cccc(C(C)C)c1NC(=O)N1CC[C@H](O)C1", "% Inhibition": -7, "Z score": 0.71}, {"smiles": "COc1ccncc1NC(=O)C1CCCOC1c1ccc(C)cc1", "note": "(stereo not drawn)", "% Inhibition": 0, "Z score": -0.06}, {"smiles": "NC(=O)C[C@H](NC(=O)CCc1ccoc1)C1CCCCC1", "% Inhibition": -1, "Z score": 0.11}, {"smiles": "Cc1nn(C(C)C)c(C)c1CC(=O)N1CCC2(CC1)CNC(=O)N2C", "% Inhibition": -4, "Z score": 0.57}, {"smiles": "CC(C)c1ccc(-c2ccnc3c(C(=O)NCc4ccccn4)cnn23)cc1", "% Inhibition": 32, "Z score": -3.65}, {"smiles": "CC1CCCN(CC(C)NS(=O)(=O)CC2(C#N)CC2)C1", "note": "(stereo not drawn)", "% Inhibition": -6, "Z score": 0.82}, {"smiles": "COCCc1nc(CCc2cnn(C)c2)n(-c2cccc3c2CCC3)n1", "% Inhibition": -7, "Z score": 1.32}, {"smiles": "O=C(c1c(F)c(F)c(-n2c3ccccc3c3ccccc32)c(F)c1F)C(F)(F)F", "% Inhibition": -1, "Z score": 0.12}, {"smiles": "CC1CN(CCCNC(=O)c2cccc(=O)[nH]2)CC(C)O1", "note": "(stereo not drawn)", "% Inhibition": -14, "Z score": 1.99}, {"smiles": "CC(C)c1ccc(C2=Nc3ncnn3/C2=N/Cc2ccccc2)cc1", "% Inhibition": 0, "Z score": -0.01}, {"smiles": "C[C@H](NC(=O)CNC(=O)OCc1ccccc1)C(N)=O", "note": "(Cbz-Gly-Ala-NH2)", "% Inhibition": -4, "Z score": 0.72}, {"smiles": "c1cc(Cn2ccnc2)cc(NC2CCCCCCC2)c1", "% Inhibition": -14, "Z score": 1.29}, {"smiles": "O=C(CC1=CCCCC1)Nc1ccn(CC(F)F)n1", "% Inhibition": 5, "Z score": -0.74}, {"smiles": "Cc1cnc(COc2ccc(C)c(F)c2)o1", "% Inhibition": 0, "Z score": 0.07}, {"smiles": "Cc1ncc(CN(C)C(=O)CC2CCCCC2)s1", "% Inhibition": -14, "Z score": 1.94}, {"smiles": "CNC(=O)c1ccc(N2C[C@@H](C(F)(F)F)OC(C)(C)C2)nc1", "% Inhibition": -1, "Z score": 0.19}, {"smiles": "CCCn1c(-c2cccc(C(=O)NC3CCCC3)c2)nc2cccnc21", "% Inhibition": -11, "Z score": 1.49}, {"smiles": "CN(C)S(=O)(=O)N(CCC(F)(F)F)C1CCCCC1", "% Inhibition": -2, "Z score": 0.36}]}]}
